# Experimental data taken from the supplement of paper PMC3334620.
# Whole data set: some 33,000 sequences, median “E-score (-0.5 to 0.5)” near -0.017, cut for the highest 2% near 0.3. Some of the results follow.
# Target: T1, Sut1 (UniProt P53032)
# T1 sequence: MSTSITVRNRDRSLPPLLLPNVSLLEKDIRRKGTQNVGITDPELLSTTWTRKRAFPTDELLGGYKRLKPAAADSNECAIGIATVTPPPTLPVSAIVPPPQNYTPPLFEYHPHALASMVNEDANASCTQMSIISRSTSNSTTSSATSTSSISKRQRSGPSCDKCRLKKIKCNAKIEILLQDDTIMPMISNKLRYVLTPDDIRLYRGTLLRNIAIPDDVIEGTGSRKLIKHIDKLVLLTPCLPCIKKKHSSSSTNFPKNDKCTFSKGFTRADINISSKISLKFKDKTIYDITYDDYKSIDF
# Test: PBM E-score (8-mer binding enrichment) (E-score (-0.5 to 0.5)); higher = stronger / more preferred TF binding; most listed sequences are background and not binding sites
# Settings: protein concentration: 200 nM; construct: GST-full length
# Method in brief: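 Bound GST-tagged yeast transcription factors, applied at about 100-200 nM to double-stranded universal all-10-mer Agilent arrays, were detected with fluorescent anti-GST. Scans were normalised with masliner. A modified Wilcoxon-Mann-Whitney statistic, the E-score, was assigned to each ungapped eight-base word pooled with its reverse complement by the Universal PBM Analysis Suite.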
row,Sequence,PBM E-score
1,AGCTTTAT,0.0137
2,AGCCATGC,-0.011
3,AACTTAGA,0.176
4,AGATGGGG,-0.266
5,ACGAGCGT,-0.265
6,CGTCTGGA,-0.229
7,GCACGAAC,0.0158
8,AGAGCACG,0.125
9,GGAATCAC,0.078
10,CCATCTAA,-0.061
11,GATAAGGA,-0.0824
12,GGAAATGA,0.116
13,AACAACTG,0.138
14,AACACTAA,0.211
15,CGCTAGCA,-0.0161
16,AATCACGT,-0.0474
17,ATGTCGGG,-0.058
18,CAGATCGA,-0.19
19,AGGCCGAG,-0.0213
20,TGGCTGAA,-0.00757
21,ACTTTAGC,0.00521
22,AGGGGAAC,-0.142
23,CTCCAAAG,0.0263
24,AAGATGCC,-0.0256
25,AGGTATGG,-0.125

row,Sequence,PBM E-score
1,CATAAACC,0.136
2,CCTACTCG,-0.128
3,ATGTTGGA,0.133
4,GATACATC,-0.0406
5,AAAAAACT,0.198
6,ATGTCTAC,-0.0126
7,GGTTTTCA,0.14
8,GCTTTCCA,-0.0183
9,CGTCCTAA,-0.125
10,CATTTCCC,0.0629
11,ATAATGCC,0.099
12,TACTCTGA,-0.184
13,GCGTGCAC,-0.0829
14,TTCTAAAA,0.214
15,GTTAAAAC,0.194
16,CATAACGG,-0.0262
17,GACCTAGA,0.0551
18,CGCGTTAC,-0.0482
19,CCTGTCAG,-0.15
20,AAGTAGCA,0.0196
21,ATGGAACC,-0.176
22,ACTGCGCC,-0.245
23,AGGATTTC,-0.101
24,ACGGGTCT,-0.152
25,CGAATAGC,-0.0181

row,Sequence,PBM E-score
1,AAAATACA,0.119
2,CAGTCACC,-0.23
3,GAAGGGCA,-0.131
4,AGACAGGG,-0.293
5,ACAACTTA,-0.00725
6,ATAACAAA,0.286
7,ACCTTGTG,-0.107
8,GTCCGTTA,0.376
9,AGCCTGTG,-0.216
10,GACTTTAA,0.179
11,CACTGCCG,-0.052
12,ATCTCTAC,-0.0152
13,CCCCCACG,-0.273
14,GTCATGCA,-0.101
15,ACATCGGA,0.351
16,CTTCCTGC,-0.281
17,CAGTGCTA,-0.0723
18,AAATTAAG,0.124
19,AGTTATTA,0.176
20,CCATGCGG,-0.132
21,CTATAACC,-0.00144
22,AAGGAGAC,-0.103
23,CGCGTTTA,0.0625
24,CGAAGCCG,0.0348
25,ACATGCTA,-0.19

row,Sequence,PBM E-score
1,CTAATTAC,0.221
2,GGTAATAA,0.188
3,AGAGTCAA,-0.177
4,AGCAATAT,0.0944
5,AGGTAGCA,-0.0341
6,CTTGTGGA,-0.172
7,ATGTACGG,0.165
8,CATGGGAA,0.105
9,GATGGTAA,-0.0671
10,AGTTGGCG,-0.0449
11,GATTATCA,0.107
12,GACAGAGA,-0.0478
13,CGACGTCG,0.0408
14,CGAAGTCG,0.0932
15,ACCATAGG,-0.3
16,AATAAAAA,0.273
17,GAGTTAGA,0.0211
18,ACCCATTA,-0.0414
19,GTGCTTGA,-0.138
20,CGAACACG,-0.0386
21,CCCACGCG,-0.175
22,AAGGGGCT,-0.119
23,CAAGTGTG,0.0173
24,GCGTATCC,-0.298
25,CCGATGCG,-0.0426

row,Sequence,PBM E-score
1,GGCTTGGA,-0.261
2,CGGTACGA,-0.198
3,CTTAAATA,0.0743
4,CGACCCTA,-0.00567
5,AGTCGTAT,0.0684
6,GGTGACCA,-0.0976
7,AATTGCCG,0.083
8,ACTCCCCG,0.196
9,GGCGGACA,0.0225
10,GCCAGTTA,-0.0422
11,CTCTAGGC,-0.147
12,CCGGACGG,0.0807
13,CCCTGCTC,-0.0773
14,CTGCGTGC,-0.104
15,GGAGACCA,-0.0203
16,CATATTCA,0.168
17,AGGGTGAA,-0.00902
18,CGGCATGA,0.0325
19,CTTTACCC,-0.0495
20,CGCCCTTA,-0.194
21,CACTGATC,-0.064
22,CCTGAAAC,0.0309
23,AGGCGCAC,-0.0886
24,CGAGTACC,-0.112
25,AATGATAC,0.253

row,Sequence,PBM E-score
1,CACTTCAA,0.0556
2,TTCTGAAA,0.155
3,ACAACCGG,0.101
4,GACGTCTA,0.0191
5,CATTTGCC,-0.206
6,ATACTGTA,0.14
7,AAACAACT,0.15
8,AAAGAGGA,-0.175
9,GTATATCA,0.153
10,GCCGAGCA,-0.305
11,CACCTCCC,-0.382
12,AAATTAGC,0.102
13,CGGTCAGC,-0.2
14,GGAAGGGA,-0.0551
15,ACGGCCGC,-0.139
16,GGAGGTTA,-0.0861
17,AGAAGGGA,-0.302
18,CATATCCC,0.0171
19,CGACTCAC,0.0119
20,AGGGGAAT,-0.0804
21,GGAAGCAC,0.115
22,CTTAGAGA,-0.0381
23,CTAGAGAA,-0.00546
24,TATTGCAA,0.23
25,CGCAAAAG,-0.0335

row,Sequence,PBM E-score
1,CGTACCTA,-0.151
2,CAAGGCCC,-0.132
3,AGAATCGG,0.0691
4,ACTATATG,0.196
5,TTAGTGAA,0.26
6,CAAAAGAC,-0.072
7,GATGCCCA,0.0574
8,GAGGATGC,-0.138
9,AAGCAAGG,-0.116
10,AACCTCAG,-0.0472
11,TACCAGGA,0.1
12,TAAAGTCA,0.0489
13,ATGTAGCA,0.0408
14,CGTGATCC,-0.194
15,CTGGCGCC,-0.192
16,CACCCTAC,-0.161
17,CCCTAAAG,-0.173
18,CGGGGAGA,-0.192
19,CTGAGCTC,0.119
20,CTCGCTCA,-0.131
21,GCATATAA,0.0702
22,CACATTGC,-0.0455
